From PubChem BioAssay AID463173 (ICCB-Longwood Screening Facility, Harvard Medical School, 2010)
Hit rate of the full screen: of about 52,000 compounds, about 4,300 (8.3%) were called active. No stated cut-off is given here; in the data, active means survival mostly below about 52% (no sharp cut-off); inactive means mostly above about 56%. The list shows a part of the results.

System: DeltatarO mutant
Assay: growth inhibition of S. aureus wild type versus tarO mutant, primary screen, teichoic acid synthesis inhibitors, RN4220, OD600 (AID 463173)
Settings: OD600, 18 h, hits give low values, screened at 18.75 µg/mL (by protocol)

SMILES	survival
c1cc2c(cc1CNC1CCCC1)OCO2	inactive: 88%
N#Cc1ccccc1NC(=O)C(=O)NCC(c1ccc2c(c1)OCO2)N1CCN(c2ccccc2)CC1 (stereo unspecified)	inactive: 113%
CCCCN(CC)C(=O)Cn1c(=O)n(-c2ccc(OCC)cc2)c(=O)c2c3c(sc21)CCCC3	active: 89%
O=C(Nc1ccc2nc(SCC(=O)N3CCCc4ccccc43)sc2c1)c1ccc(F)cc1	inactive: 81%
COc1cc(CN2CCc3nc(N4CCN(c5ccccc5F)CC4)ncc3C2)ccc1OC(C)C	inactive: 118%
CCC(=O)N1CCCc2cc(S(=O)(=O)Nc3ccc(C)c(C)c3)ccc21	inactive: 68%
Cc1c(C(=O)Nc2ccc(Br)cc2F)sc2ncnc(N(C)C3CCCCC3)c12	inactive: 102%
Cc1ccc(S(=O)(=O)c2cn(Cc3ccc(F)cc3)c3cc(F)c(F)cc3c2=O)cc1	inactive: 87%
CCOC(=O)c1cc2c(=O)n3ccccc3nc2n(CC(C)C)c1=NC(=O)c1cc2ccccc2o1	inactive: 59%
CC(C)(C)N1Sc2ccccc2NC1=S	inactive: 81%
CC(=O)c1cccc(NC(=O)CCS(=O)(=O)c2ccc(Br)s2)c1	active: 43%
CCOCCn1ccc2c(OCC(=O)Nc3ccc(OC(F)(F)F)cc3)cccc2c1=O	inactive: 93%
O=C(CN1C(=O)CC(c2ccccc2)Sc2ccccc21)Nc1cccc(Cl)c1 (stereo unspecified)	inactive: 79%
COc1ccc(/C=C/C(=O)Nc2nc3n(n2)C(c2ccccc2)C=C(c2ccccc2)N3)cc1 (stereo unspecified)	inactive: 70%
Cc1ccc(-c2cnc(NCc3ccc(C(F)(F)F)cc3)n2C)cc1	active: -5%
CCN(C(=O)Cn1c(=O)oc2cc(Cl)ccc21)c1cccc(C(F)(F)F)c1	inactive: 67%
Cc1ccc(CCNC(=O)C2CCN(c3nnc(-n4cccc4CNc4ccc(C)cc4)s3)CC2)cc1	inactive: 107%
Cc1ccnc(NS(=O)(=O)c2cc(-c3cc(C)no3)ccc2C)c1	inactive: 99%
Cc1nc2scc(C)n2c(=O)c1S(=O)(=O)Nc1ccc(N2CCOCC2)cc1	inactive: 84%

SMILES	survival
CCc1ccc(N(CC)C(=O)Cn2c(=O)oc3ccccc32)cc1	inactive: 70%
Cc1nn(S(=O)(=O)c2ccc(F)cc2)c(C)c1S(=O)(=O)N1CCC(C)CC1	active: -1%
COc1ccc(NC(=O)C2CCCN(S(=O)(=O)c3ccc4c(c3)CCCC(=O)N4)C2)c(OC)c1 (stereo unspecified)	inactive: 89%
Cc1ccc(CN(C2CCCC2)S(=O)(=O)c2ccc(S(=O)(=O)N3CCCC(C)C3)cc2)o1 (stereo unspecified)	inactive: 74%
COc1ccc(OC)c(CNS(=O)(=O)c2c(C(=O)N3CCCCCC3)c(C)n(C)c2C)c1	inactive: 124%
O=S(=O)(c1ccc(Br)cc1)c1nc(-c2cccs2)oc1SCc1ccccc1F	inactive: 66%
COCCCNC(=O)c1cc(-c2cccnc2)nc2ccc(S(=O)(=O)N3CCC(C)CC3)cc12	inactive: 113%
CN1C(=O)C2(c3ccccc31)N(c1cccc(F)c1)C(=O)CS2(=O)=O (stereo unspecified)	inactive: 120%
C=CCNC(=S)N1CCC(C(=O)c2ccc(C)cc2)CC1	inactive: 103%
COc1ccc(Cl)cc1NC(=O)c1c(NCc2sccc2C)sc2c1CCCC2	inactive: 71%
Clc1ccccc1CNc1nc2ccccc2c2nc(-c3cccnc3)nn12	inactive: 86%
COc1ccccc1NC(=O)N1CCN(c2cc(-c3ccccc3)nc3ncnn23)CC1	inactive: 66%
C=CCc1ccccc1OCC(O)CN1CCN(c2ccccc2)CC1 (stereo unspecified)	inactive: 83%
CCn1c(=O)n(CC)c2cc(N3CCCCC3)c(NC(=O)Nc3ccccc3C(F)(F)F)cc21	inactive: 101%
Cc1cc(C)n2nc(SCC(=O)Nc3cccc(C(F)(F)F)c3)nc2n1	inactive: 57%
COc1ccccc1C(=O)Nc1ccc2c(c1)nc(CN1CCCCC1)n2C	inactive: 66%
CCC(Oc1ccc(F)cc1)C(=O)Nc1nc(-c2ccc(F)cc2)ns1 (stereo unspecified)	active: -2%
COc1ccc(C(CC(=O)NCc2ccccc2)N2Cc3ccccc3C2=O)cc1 (stereo unspecified)	inactive: 106%
CCOC(=O)c1ccc(NC(=O)CC2C(=O)N(c3cccc(OC)c3)C(=O)N2Cc2ccc(OC)cc2)cc1 (stereo unspecified)	inactive: 57%

SMILES	survival
CCc1ccccc1NC(=O)c1cnc2sc(N3CCOCC3)nn2c1=O	inactive: 116%
COc1ccccc1N1CCN(C(=O)CCNS(=O)(=O)c2ccc3c(c2)CCN3C(=O)C2CC2)CC1	inactive: 91%
Cc1ccc(NC(=O)c2cnc(SCC(=O)Nc3cc(C)on3)n(C)c2=O)cc1	inactive: 88%
COc1ccc(Cl)cc1NC(=O)CSC1=Nc2ccccc2C2=NC(CC(=O)NCc3ccc4c(c3)OCO4)C(=O)N12 (stereo unspecified)	inactive: 87%
Cc1ccc(CNC(=O)Cn2cc(S(=O)(=O)Cc3ccccc3F)c3ccccc32)cc1	inactive: 112%
N#Cc1c(N)nc2c(c1-c1ccc3c(c1)OCO3)CCc1ccccc1-2	inactive: 80%
COc1cc(NC(=O)CSC2=Nc3ccccc3N=C(c3ccc(F)cc3)C2)cc(OC)c1	inactive: 94%
COCCNC(=O)Cn1nc(C(F)(F)F)cc1C	inactive: 85%
COc1ccc(CNC(=O)c2cnc3cc(C)ccn3c2=O)cc1	inactive: 73%
C#CCN1C(=O)C2C(C(=O)NC)C3C=CC2(O3)C1C(=O)NCc1ccc(OC)cc1 (stereo unspecified)	inactive: 103%
Cc1cc(N2CCOCC2)cc(C)[n+]1[O-]	inactive: 90%
Cc1ccccc1NC(=O)CSc1nc(=O)n(CCN2CCOCC2)c2c1CCC2	inactive: 93%
CN(Cc1ccccc1)C(=O)CSc1nc2ccccc2n1Cc1ccccc1F	inactive: 86%
Cc1sc2c(c1C)c(=O)n(-c1cccc(C(F)(F)F)c1)c(=O)n2Cc1ccc(F)cc1	inactive: 57%
COc1ccccc1Cc1nc2ccccc2nc1SCC(=O)Nc1cccc(Cl)c1C	inactive: 79%
COC(=O)c1ccc(NC(=O)CCc2c(C)nc3c(c2C)c(=O)n(C)c(=O)n3C)cc1	inactive: 98%
CCC(CC)NC1CCN(Cc2ccccc2)CC1	inactive: 104%
Cc1nn2c(C(F)(F)F)cc(-c3ccc(OC(C)C)cc3)nc2c1C#N	inactive: 70%
